This note sets out measurements from ChEMBL document CHEMBL4888484, “Replenishing the malaria drug discovery pipeline: Screening and hit evaluation of the MMV Hit Generation Library 1 (HGL1) against asexual blood stage Plasmodium falciparum ,using a nano luciferase reporter read-out” (2022).

Each structure is given as a SMILES string. About 540 (0.36%) of roughly 150,000 compounds showed an effect of 50% or more. This is one part of the list.

The test system of the experiment is Plasmodium falciparum. Description: Primary screen in NF54 nanoGlo assay, in single point, at 2uM, 72h; a lower Z score goes with more inhibition. The settings on record: timepoint 72 hour. It is filed as functional, Erythrocyte.
For the compound `CCn1nc(C2CC2)cc1C(=O)Nc1ccsc1C(N)=O`, the “% Inhibition” value is -5% and the Z score came out at 0.89.

Take `O[C@H]1CN(c2cnc3ccccc3n2)C[C@@H]1N1CCCC1`: the “% Inhibition” value is -8% and the Z score is recorded as 1.14.

Take `COc1cc(Nc2ccc(N)cc2)nc(C)n1`: the “% Inhibition” value is 0% and the Z score was 0.06.

For `Oc1[nH]nc2nc(C(F)(F)F)cc(C(F)(F)F)c12`, the “% Inhibition” value is given as -14% and the Z score is recorded as 2.12.

As for `CC(C)(C)C(=O)N1CC(c2nc(-c3cccnc3)no2)C1`, the “% Inhibition” value is 4% and the Z score was -0.69.

Turning to `CN(C(=O)[C@@H]1COCCO1)c1cc(Cl)cc(Cl)c1`, the “% Inhibition” value is on record as -2% and the Z score is reported as 0.39.

Turning to `CC(C)N1CCN(CCn2cnc(-c3ccccc3)c2-c2ccsc2)CC1`, the “% Inhibition” value is reported as -2% and the Z score turned out to be 0.21.

For `CC1CCC(NC(=O)NCCc2ccnn2C)C(C)C1` (stereo unspecified), the “% Inhibition” value is given as -12% and the Z score is 1.73.

For `O=C(N[C@@H]1CCCC[C@H]1NC(=O)C1CCN(S(=O)(=O)c2ccc(Br)cc2)CC1)c1ccccc1`, the “% Inhibition” value is -14% and the Z score stood at 1.97.

On to `O=C(c1cnc(-c2cccnc2)nc1)N1CCO[C@@H](Cc2cccc(F)c2)C1`, for which the “% Inhibition” value is listed as -29% and the Z score is on record as 3.12.

Regarding `Cc1ccc(CN(C)C(=O)c2cccc(S(=O)(=O)N3CCCCC3)c2)o1`, the “% Inhibition” value is reported as -1% and the Z score is reported as 0.13.

As to `CC(C)(CNC(=O)NCC1CC2CCC1C2)NS(C)(=O)=O` (stereo unspecified), the “% Inhibition” value is 7% and the Z score was -0.97.

Consider `CCc1nnc(-c2nc3c([nH]2)C[C@H](c2cccc(OC)c2)CNC3=O)s1`, for which the “% Inhibition” value is -1% and the Z score was 0.12.

Turning to `COc1ccc(C(=O)N[C@H]2CC(=O)N(c3ccc4c(c3)OCCO4)C2)cc1`, the “% Inhibition” value is -8% and the Z score came out at 1.57.

For the compound `O=S(=O)(c1c(F)cccc1Br)N1CC2CCC1C2` (stereo unspecified), the “% Inhibition” value is on record as 29% and the Z score is -3.32.

Consider `COc1ccc(S(=O)(=O)N2CCC3(CC2)C[C@@H](C(=O)NC2CCCC2)N(C)C3=O)cc1`, for which the “% Inhibition” value is -4% and the Z score came out at 0.45.

Consider `COc1cccc(CN(C)c2nc(=O)c3c(ncn3CC3CC3)c(=O)[nH]2)c1`, for which the “% Inhibition” value is -7% and the Z score is listed as 1.24.

For `Cc1ccc(CC(=O)N[C@@H]2CS(=O)(=O)C[C@H]2O)c(Cl)c1`, the “% Inhibition” value was -8% and the Z score turned out to be 1.12.

As for `O=C(c1cc[nH]n1)N1CCOc2c(O)cc(-c3cccnc3)cc2C1`, the “% Inhibition” value is given as -16% and the Z score is 2.76.

With `CCc1ccc(-c2nn(C)c(=O)c3c2CCCC3)cc1S(=O)(=O)N1CCCC1`, the “% Inhibition” value is given as -7% and the Z score is 1.01.

With `O=C(NC1CCC2(CCOCC2)CC1)c1cc(C2CC2)on1`, the “% Inhibition” value amounted to 3% and the Z score was -0.53.

Consider `CC[C@H]1CCCCN1CCCNC(=O)c1cc2occc2c(Nc2ccc(F)cc2)n1`, for which the “% Inhibition” value was -7% and the Z score is on record as 0.72.

Regarding `O=C(NCc1ccccc1)N1C[C@H]2CC[C@@H](C1)N(Cc1ccccn1)C2`, the “% Inhibition” value is given as -1% and the Z score turned out to be 0.31.

As for `O=C(Nc1ccccc1-c1nc2ccccc2s1)N1CCC[C@@H]1CO`, the “% Inhibition” value is reported as -10% and the Z score is given as 1.83.

Take `CCN1CCN(C(=O)c2cncc(O)n2)CC1(C)C`: the “% Inhibition” value is given as -6% and the Z score turned out to be 0.77.

In the case of `CCCc1cc(C(=O)N[C@@H](C)c2nnc(C(C)C)o2)[nH]n1`, the “% Inhibition” value is -3% and the Z score was 0.54.

As for `CNc1cc([C@H]2C[C@H](Nc3nc(N)nc(C)c3Cl)C2)nc(COC)n1`, the “% Inhibition” value is given as -3% and the Z score was determined as 0.34.

As to `Cc1cc(C)c(-c2cc(C(=O)N(CCC(=O)N3CCCCC3)C3CC3)no2)c(C)c1`, the “% Inhibition” value is given as -6% and the Z score is recorded as 1.23.

`FC(F)(F)c1ccccc1CN1CCC(O[C@H]2CCOC2)CC1`: the “% Inhibition” value turned out to be 0% and the Z score is on record as -0.02.

As to `Clc1ccc(CN2CCN(c3ncnc4sccc34)CC2)cc1`, the “% Inhibition” value is on record as -7% and the Z score is on record as 1.31.

Regarding `O=C(c1cc(=O)[nH]c2ccccc12)N1CCN(c2ccc(F)cc2)CC1`, the “% Inhibition” value was -15% and the Z score amounted to 2.11.

As to `CCOCCC(=O)NC1(CO)CCCCCC1`, the “% Inhibition” value was 4% and the Z score was -0.59.

For the compound `CC1CN(CC2CCN(C(=O)Cc3cccs3)CC2)CC(C)O1` (stereo unspecified), the “% Inhibition” value was found to be 1% and the Z score was -0.16.

Consider `CC(C)Oc1ccc(C(=O)N2C3CCC2CC(n2ccnn2)C3)cc1` (stereo unspecified), for which the “% Inhibition” value is recorded as -3% and the Z score is given as 0.47.

As for `Cc1nn(C)c(C)c1S(=O)(=O)N[C@@]1(C)CC(C)(C)OC1=O`, the “% Inhibition” value is on record as 32% and the Z score was -3.75.

For `O=C(c1ccn2ccnc2c1)N(CCc1cccc(F)c1)C1CC1`, the “% Inhibition” value is -7% and the Z score is reported as 0.99.

For `O=C(Nc1nn2cc(-c3ccccc3)nc2s1)c1cccc(F)c1`, the “% Inhibition” value was -15% and the Z score was 2.88.

In the case of `CCCc1cc(CNC(=O)[C@H](C)S(=O)(=O)CC)on1`, the “% Inhibition” value is listed as -2% and the Z score is on record as 0.24.

`CC(C)c1cnc(N2CC[C@](C)(O)C2)s1`: the “% Inhibition” value is reported as -4% and the Z score is 0.44.

For `FC(F)(F)c1ccc2c(c1)NC[C@@H]1CCCCN21`, the “% Inhibition” value is on record as -2% and the Z score turned out to be 0.23.

Turning to `CCCn1ncc(C(=O)NC[C@H](C)C(=O)O)c1C`, the “% Inhibition” value is reported as -11% and the Z score was 0.98.

`COc1cc2c(cc1OC)CN(C(=O)Cn1ccnc1C(C)C)CC2`: the “% Inhibition” value is -2% and the Z score was 0.25.

Take `Cc1nnc(NC(=O)c2c(C)noc2-c2ccc(Cl)cc2)s1`: the “% Inhibition” value is given as -2% and the Z score was 0.25.
